Among all 150,000 compounds or so, about 540 (0.36%) showed an effect of 50% or more. Some of the results follow.
Test system: Plasmodium falciparum
Assay: Primary screen in NF54 nanoGlo assay, in single point, at 2uM, 72h; a lower Z score goes with more inhibition
Format: functional, Erythrocyte
Details: timepoint 72 hour

| SMILES | % Inhibition | Z score |
| --- | --- | --- |
| CCOc1cc(C2C3C(=O)N(c4ccc(Cl)cc4)C(=O)C3ON2c2ccccc2)ccc1OCc1ccccc1 (stereo unspecified) | 4% | -0.51 |
| CCn1ccc(C(=O)N2CCNC(=O)[C@@H](CC(C)C)NC(=O)c3cc(F)ccc3OCCn3cc(nn3)CC2)cc1=O | -10% | 1.28 |
| COc1ccc(CC(=O)N(CC(F)(F)F)[C@@H](C)C2CC2)cc1OC | -4% | 0.55 |
| Cc1ccccc1NC(=O)CC(=O)N1CCNC(=O)[C@@H]1Cc1ccccc1 | 4% | -0.64 |
| Cc1sccc1NC(=O)NCCN1CCO[C@@H](C)C1 | -3% | 0.65 |
| O=C(NCc1ccc(-n2cncn2)nc1)c1ccncc1 | -19% | 1.67 |
| CC(C)c1cc(-c2nc([C@]3(c4ccc(F)cc4)CCOC3)no2)nc(N)n1 | -8% | 1.52 |
| Cc1ccc(NS(=O)(=O)c2ccc(-c3cnc(C4CCCC4)o3)s2)cc1 | -5% | 0.61 |
| CC(C)CNC(=O)C1CN(C(=O)c2cccs2)CC1c1ccc(F)cc1 (stereo unspecified) | -11% | 1.17 |
| CC(NC(=O)c1cccnc1O)C1CCCO1 (stereo unspecified) | -4% | 0.56 |
| Cc1ncc(CN2CCC(CO)(CCCc3ccccc3)CC2)s1 | -34% | 3.02 |
| O=C(Nc1nc2ccccc2s1)C(=O)N1CCC(Cc2ccccc2)CC1 | -14% | 2.17 |
| CC(NC(=O)CN1C(=O)C2CCCN2C(=O)c2ccc(F)cc21)c1ccccc1 (stereo unspecified) | 5% | -0.79 |
| C[C@H](Oc1ccc(-c2ccccc2)c(F)c1)c1ccn(C(=O)c2ccc(F)cc2)n1 | 0% | 0.03 |
| CCN(C)c1ccnc(NCc2cnc3c(c2)CCC3)n1 | -6% | 1 |
| CN1CCN(C(=O)c2coc(CN(Cc3ccc4c(c3)OCO4)Cc3ccccc3C(F)(F)F)n2)CC1 | -3% | 0.52 |
| CNc1nc(-c2cncnc2)ncc1F | 0% | -0.08 |
| O=C1COc2cc(C(=O)N3CCC3)ccc2N1 | -11% | 1.6 |
| O=C(O)C1C2C=CC(C2)C1C(=O)Nc1cccc2ncccc12 (stereo unspecified) | 34% | -4.93 |
| C[C@@H](C(=O)Nc1ccccc1)N(C)Cc1cnccn1 | 1% | -0.14 |
| O=C(NCc1ccc(Br)cc1)NC1CC2OCCCC12 (stereo unspecified) | -11% | 1.4 |
| CC1(C)C[C@H](c2ccccc2)CN1Cc1c(C(=O)O)oc2ccccc12 | 29% | -3.25 |
| CCCS(=O)(=O)NC[C@H]1CCN(Cc2ccc3nonc3c2)C1 | 0% | 0.02 |

From ChEMBL document CHEMBL4888484, “Replenishing the malaria drug discovery pipeline: Screening and hit evaluation of the MMV Hit Generation Library 1 (HGL1) against asexual blood stage Plasmodium falciparum ,using a nano luciferase reporter read-out” (2022)
